In assay [1] the target is T1, human fibroblast activation protein (huFAP) on cells (human, UniProt Q12884 1-760).
T1 construct: Transfected in NIH/3T3-huFAP clone 39; also called NIH/3T3-huFAP clone 39; WM266-4
In words: flow cytometry on MV-3 cells; PE anti-human IgG Fc-gamma F(ab')2; MFI. (In general: Flow cytometry measures light scatter and fluorescence of single cells or particles in a stream.)

The target in assay [2] is T1, human fibroblast activation protein …. Briefly: flow cytometry on WM-266-4 cells; PE anti-human IgG Fc-gamma F(ab')2; MFI.
Assay [3] concerns the target T2, human 4-1BB (CD137) on cells (human, UniProt Q07011 24-255).
T2 construct: whole, on cells; also called 4-1BB+ human T cells
Briefly: flow cytometry on activated human T cells, gate CD8+; PE anti-human IgG Fc-gamma F(ab')2; MFI baseline corrected.

Assay [4] has as its target T2, human 4-1BB (CD137) on cells. Briefly: flow cytometry on activated human T cells, gate CD4+; PE anti-human IgG Fc-gamma F(ab')2; MFI baseline corrected.
For assay [5] the target is unchanged. Briefly: flow cytometry on activated human T cells, gate CD8+; PE anti-human IgG Fc-gamma F(ab')2; MFI baseline corrected. The source holds these as a separate data set.

The text below walks through data of US20200270321A1 (Hoffmann-La Roche, published 2020).

What is called EC50 (read off the curve) is the concentration needed to bring the measured effect to its halfway point. A lower EC50 (read off the curve) goes with higher potency in that assay.

B1: Monovalent FAP(4B9)-targeted single chain 4-1BB ligand trimer-containing Fc (kih) fusion antigen binding molecule (Compound S3) (Fc fusion)
chain: [left out - about 200 residues]GGGGSGGGGSREGPELSPDDPAGLLDLRQGMFAQLVAQNVLLIDGPLSWYSDPGLAGVSLTGGLSYKEDTKELVVAKAGVYYVFFQLELRRVVAGEGSGSVSLALHLQPLRSAAGAAALALTVDLPPASSEARNSAFGFQGRLLHLSAGQRLGVHLHTEARARHAWQLTQGATVLGLFRVTPEIPAGLPSPRSEGGGGSGGGGSREGPELSPDDPAGLLDLRQGMFAQLVAQNVLLIDGPLSWYSDPGLAGVSLTGGLSYKEDTKELVVAKAGVYYVFFQLELRRVVAGEGSGSVSLALHLQPLRSAAGAAALALTVDLPPASSEARNSAFGFQGRLLHLSAGQRLGVHLHTEARARHAWQLTQGATVLGLFRVTPEIPAGLPSPRSEGSPGSSSSGS[left out - human IgG1 Fc with changes]
heavy: EVQLLESGGGLVQPGGSLRLSCAASGFTFSSYAMSWVRQAPGKGLEWVSAIIGSGASTYYADSVKGRFTISRDNSKNTLYLQMNSLRAEDTAVYYCAKGWFGGFNYWGQGTLVTVSSASTKGPSVFPLAPSSKSTSGGTAALGCLVKDYFPEPVTVSWNSGALTSGVHTFPAVLQSSGLYSLSSVVTVPSSSLGTQTYICNVNHKPSNTKVDKKVEPKSCDKTHTCPPCPAPEAAGGPSVFLFPPKPKDTLMISRTPEVTCVVVDVSHEDPEVKFNWYVDGVEVHNAKTKPREEQYNSTYRVVSVLTVLHQDWLNGKEYKCKVSNKALGAPIEKTISKAKGQPREPQVCTLPPSRDELTKNQVSLSCAVKGFYPSDIAVEWESNGQPENNYKTTPPVLDSDGSFFLVSKLTVDKSRWQQGNVFSCSVMHEALHNHYTQKSLSLSPGK
light: EIVLTQSPGTLSLSPGERATLSCRASQSVTSSYLAWYQQKPGQAPRLLINVGSRRATGIPDRFSGSGSGTDFTLTISRLEPEDFAVYYCQQGIMLPPTFGQGTKVEIKRTVAAPSVFIFPPSDEQLKSGTASVVCLLNNFYPREAKVQWKVDNALQSGNSQESVTEQDSKDSTYSLSSTLTLSKADYEKHKVYACEVTHQGLSSPVTKSFNRGEC
For the molecule B1, the “EC50 (read off the curve)” value in assay [1] is approximately 1 nM; in assay [2], approximately 0.7 nM; in assay [3], approximately 0.1 nM.

B2: Bivalent FAP(4B9)-targeted single chain 4-1BB ligand trimer-containing Fc (kih) fusion antigen binding molecule (Compound S2) (Fc fusion)
heavy 1: B1 heavy
heavy 2: EVQLLESGGGLVQPGGSLRLSCAASGFTFSSYAMSWVRQAPGKGLEWVSAIIGSGASTYYADSVKGRFTISRDNSKNTLYLQMNSLRAEDTAVYYCAKGWFGGFNYWGQGTLVTVSSASTKGPSVFPLAPSSKSTSGGTAALGCLVKDYFPEPVTVSWNSGALTSGVHTFPAVLQSSGLYSLSSVVTVPSSSLGTQTYICNVNHKPSNTKVDKKV[left out - human IgG1 Fc with changes]GGGGSGGGGSREGPELSPDDPAGLLDLRQGMFAQLVAQNVLLIDGPLSWYSDPGLAGVSLTGGLSYKEDTKELVVAKAGVYYVFFQLELRRVVAGEGSGSVSLALHLQPLRSAAGAAALALTVDLPPASSEARNSAFGFQGRLLHLSAGQRLGVHLHTEARARHAWQLTQGATVLGLFRVTPEIPAGLPSPRSEGGGGSGGGGSREGPELSPDDPAGLLDLRQGMFAQLVAQNVLLIDGPLSWYSDPGLAGVSLTGGLSYKEDTKELVVAKAGVYYVFFQLELRRVVAGEGSGSVSLALHLQPLRSAAGAAALALTVDLPPASSEARNSAFGFQGRLLHLSAGQRLGVHLHTEARARHAWQLTQGATVLGLFRVTPEIPAGLPSPRSEGGGGSGGGGSREGPELSPDDPAGLLDLRQGMFAQLVAQNVLLIDGPLSWYSDPGLAGVSLTGGLSYKEDTKELVVAKAGVYYVFFQLELRRVVAGEGSGSVSLALHLQPLRSAAGAAALALTVDLPPASSEARNSAFGFQGRLLHLSAGQRLGVHLHTEARARHAWQLTQGATVLGLFRVTPEIPAGLPSPRSE
light: B1 light
notes: IgG1 P329G LALA kih
B2: the “EC50 (read off the curve)” value was approximately 0.9 nM in assay [1], approximately 0.7 nM in assay [2], approximately 0.3 nM in assay [4] and approximately 0.07 nM in assay [5].

B3: Bivalent CEA(sm9b)-targeted single chain 4-1BB ligand trimer-containing Fc (kih) fusion antigen binding molecule (Compound S4) (Fc fusion)
heavy 1: QVKLEQSGAEVVKPGASVKLSCKASGFNIKDSYMHWLRQGPGQCLEWIGWIDPENGDTEYAPKFQGKATFTTDTSANTAYLGLSSLRPEDTAVYYCNEGTPTGPYYFDYWGQGTLVTVSSASTKGPSVFPLAPSSKSTSGGTAALGCLVKDYFPEPVTVSWNSGALTSGVHTFPAVLQSSGLYSLSSVVTVPSSSLGTQTYICNVNHKPSNTKVDKKVEPKSCDKTHTCPPCPAPEAAGGPSVFLFPPKPKDTLMISRTPEVTCVVVDVSHEDPEVKFNWYVDGVEVHNAKTKPREEQYNSTYRVVSVLTVLHQDWLNGKEYKCKVSNKALGAPIEKTISKAKGQPREPQVCTLPPSRDELTKNQVSLSCAVKGFYPSDIAVEWESNGQPENNYKTTPPVLDSDGSFFLVSKLTVDKSRWQQGNVFSCSVMHEALHNHYTQKSLSLSPGK
heavy 2: QVKLEQSGAEVVKPGASVKLSCKASGFNIKDSYMHWLRQGPGQCLEWIGWIDPENGDTEYAPKFQGKATFTTDTSANTAYLGLSSLRPEDTAVYYCNEGTPTGPYYFDYWGQGTLVTVSSASTKGPSVFPLAPSSKSTSGGTAALGCLVKDYFPEPVTVSWNSGALTSGVHTFPAVLQSSGLYSLSSVVTVPSSSLGTQTYICNVNHKPSNTKVDKKV[left out - human IgG1 Fc with changes]GGGGSGGGGSREGPELSPDDPAGLLDLRQGMFAQLVAQNVLLIDGPLSWYSDPGLAGVSLTGGLSYKEDTKELVVAKAGVYYVFFQLELRRVVAGEGSGSVSLALHLQPLRSAAGAAALALTVDLPPASSEARNSAFGFQGRLLHLSAGQRLGVHLHTEARARHAWQLTQGATVLGLFRVTPEIPAGLPSPRSEGGGGSGGGGSREGPELSPDDPAGLLDLRQGMFAQLVAQNVLLIDGPLSWYSDPGLAGVSLTGGLSYKEDTKELVVAKAGVYYVFFQLELRRVVAGEGSGSVSLALHLQPLRSAAGAAALALTVDLPPASSEARNSAFGFQGRLLHLSAGQRLGVHLHTEARARHAWQLTQGATVLGLFRVTPEIPAGLPSPRSEGGGGSGGGGSREGPELSPDDPAGLLDLRQGMFAQLVAQNVLLIDGPLSWYSDPGLAGVSLTGGLSYKEDTKELVVAKAGVYYVFFQLELRRVVAGEGSGSVSLALHLQPLRSAAGAAALALTVDLPPASSEARNSAFGFQGRLLHLSAGQRLGVHLHTEARARHAWQLTQGATVLGLFRVTPEIPAGLPSPRSE
light: ENVLTQSPSSMSVSVGDRVTIACSASSSVPYMHWLQQKPGKSPKLLIYSTSNLASGVPSRFSGSGSGTDYSLTISSVQPEDAATYYCQQRSSYPLTFGCGTKLEIKRTVAAPSVFIFPPSDEQLKSGTASVVCLLNNFYPREAKVQWKVDNALQSGNSQESVTEQDSKDSTYSLSSTLTLSKADYEKHKVYACEVTHQGLSSPVTKSFNRGEC
notes: IgG1 P329G LALA kih
Turning to B3, the figures for the “EC50 (read off the curve)” value in assay [4] and in assay [5] were approximately 1 nM and approximately 0.3 nM, respectively.

B4: Bivalent DP47-containing single chain 4-1BB ligand trimer-containing Fc (kih) fusion antigen binding molecule (Control 2) (Fc fusion)
heavy 1: [left out - about 100 residues]GSGFDYWGQGTLVTVSSASTKGPSVFPLAPSSKSTSGGTAALGCLVKDYFPEPVTVSWNSGALTSGVHTFPAVLQSSGLYSLSSVVTVPSSSLGTQTYICNVNHKPSNTKVDKKVEPKSCDKTHTCPPCPAPEAAGGPSVFLFPPKPKDTLMISRTPEVTCVVVDVSHEDPEVKFNWYVDGVEVHNAKTKPREEQYNSTYRVVSVLTVLHQDWLNGKEYKCKVSNKALGAPIEKTISKAKGQPREPQVCTLPPSRDELTKNQVSLSCAVKGFYPSDIAVEWESNGQPENNYKTTPPVLDSDGSFFLVSKLTVDKSRWQQGNVFSCSVMHEALHNHYTQKSLSLSPGK
heavy 2: [left out - about 100 residues][left out - about 120 residues][left out - human IgG1 Fc with changes]GGGGSGGGGSREGPELSPDDPAGLLDLRQGMFAQLVAQNVLLIDGPLSWYSDPGLAGVSLTGGLSYKEDTKELVVAKAGVYYVFFQLELRRVVAGEGSGSVSLALHLQPLRSAAGAAALALTVDLPPASSEARNSAFGFQGRLLHLSAGQRLGVHLHTEARARHAWQLTQGATVLGLFRVTPEIPAGLPSPRSEGGGGSGGGGSREGPELSPDDPAGLLDLRQGMFAQLVAQNVLLIDGPLSWYSDPGLAGVSLTGGLSYKEDTKELVVAKAGVYYVFFQLELRRVVAGEGSGSVSLALHLQPLRSAAGAAALALTVDLPPASSEARNSAFGFQGRLLHLSAGQRLGVHLHTEARARHAWQLTQGATVLGLFRVTPEIPAGLPSPRSEGGGGSGGGGSREGPELSPDDPAGLLDLRQGMFAQLVAQNVLLIDGPLSWYSDPGLAGVSLTGGLSYKEDTKELVVAKAGVYYVFFQLELRRVVAGEGSGSVSLALHLQPLRSAAGAAALALTVDLPPASSEARNSAFGFQGRLLHLSAGQRLGVHLHTEARARHAWQLTQGATVLGLFRVTPEIPAGLPSPRSE
light: [left out - about 100 residues][left out - about 100 residues]
notes: Untargeted bivalent control; also called bivalent untargeted trimeric 4-1BB single chain ligand Fc fusion
For B4, the binding result in assay [1] is “no binding (tested: about 30 nM)”. In addition, the “EC50 (read off the curve)” value in assay [4] was approximately 0.7 nM; in assay [5] it was approximately 0.09 nM.
